This is an account of results in the supplement of paper PMC9334596.

The test system of this test is mPer2Luc MEF. The test is described as follows: PER2::LUC luminescence relative to vehicle control (fold of vehicle); higher = higher PER2::LUC reporter signal. The note with it: 10 µM. The method, boiled down: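 Compounds from commercial libraries were added at 10 μM to 384-well plates seeded 48 h earlier with ~3000 mPer2Luc mouse embryonic fibroblasts per well. The cells were kept in DMEM with 10% FBS at 37 °C and 5% CO2. Luminescence was read with ONE-Glo 24 h and 30 h after treatment, then an alamarBlue viability assay was run. Values are PER2::LUC luminescence relative to vehicle control, as fold change.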

Several values for one entry are separate records, joined by “and”; a condition that tells them apart may be missing. Equal entries are not always repeated. In all, about 5,300 compounds were measured (“PER2::LUC luminescence relative to vehicle control”: median about 0.96, highest 2% from about 1.3 on). This is one part of the list.

In the case of `CCCN(CCC)[C@@H]1CCc2c(F)ccc(O)c2C1`, the “PER2::LUC luminescence” value came out at 1.05 (time after treatment 24 h) and 0.925 (time after treatment 30 h).

Regarding `NCC(CC(=O)O)c1ccc(Cl)cc1` (racemic), the “PER2::LUC luminescence” value is, setting by setting: (time after treatment 24 h) 1.04; (time after treatment 30 h) 0.924.

As for `N[C@@H]1C[C@H]1c1ccccc1`, the “PER2::LUC luminescence” value is 0.986 and 1.14 (time after treatment 24 h); 1 and 1.05 (time after treatment 30 h).

Consider `Cc1sc2c(c1C)C(c1ccc(Cl)cc1)=N[C@@H](CC(N)=O)c1nnc(C)n1-2`, for which the “PER2::LUC luminescence” value runs as follows: (time after treatment 24 h) 0.111; (time after treatment 30 h) 0.121.

In the case of `CCC(C)C(=O)O[C@@H]1C[C@@]2(C)[C@H](c3ccoc3)OC(=O)CC23OC2(C)O[C@]14[C@]1(C)[C@@H](CC(=O)OC)C5(C)CC1(O)[C@](O)(C5OC(=O)C1(C)OC1C)[C@@H](OC(C)=O)[C@]34O2` (some centres not stated), the “PER2::LUC luminescence” value reads like this: (time after treatment 24 h) 0.877; (time after treatment 30 h) 0.706.

On to `C[C@H]1CC[C@@H]2[C@@H](C)[C@H]3[C@H](C[C@H]4[C@@H]5CC[C@H]6C[C@@H](O)CC[C@]6(C)[C@H]5CC[C@]34C)N2C1`, for which the “PER2::LUC luminescence” value is, setting by setting: (time after treatment 24 h) 0.968; (time after treatment 30 h) 0.992.

As for `COc1ccc(N(C(=O)Oc2c(C)cccc2C)c2ccnc(Nc3ccc(N4CCN(C)CC4)cc3)n2)c(OC)c1`, the “PER2::LUC luminescence” value reads like this: (time after treatment 24 h) 0.916; (time after treatment 30 h) 0.896.

Consider `COC1=C[C@@H]2[C@@H]3Cc4ccc(OC)c(O)c4[C@]2(CCN3C)CC1=O`, for which the “PER2::LUC luminescence” value reads like this: (time after treatment 24 h) 0.821; (time after treatment 30 h) 0.885.

On to `CCOC(=O)C1C(C=C(C)C)C1(C)C` (configuration not stated), for which the “PER2::LUC luminescence” value is, setting by setting: (time after treatment 24 h) 1.05; (time after treatment 30 h) 1.02.

As for `O=[N+]([O-])C(Br)(CO)CO`, the “PER2::LUC luminescence” value runs as follows: (time after treatment 24 h) 1.02 and 0.437; (time after treatment 30 h) 0.921 and 0.421.

Consider `C=CCN1CC[C@@]2(C)c3cc(O)ccc3C[C@@H]1C2C` (single isomer, unassigned; (+)), for which the “PER2::LUC luminescence” value runs as follows: (time after treatment 24 h) 0.969; (time after treatment 30 h) 0.939.

Turning to `NC1=NC(=O)C(c2ccccc2)O1` (configuration not stated), the “PER2::LUC luminescence” value (time after treatment 24 h) was found to be 0.947 and the “PER2::LUC luminescence” value (time after treatment 30 h) came to 0.983.

Regarding `CCOC(=O)C1(c2ccccc2)CCN(CCC(C#N)(c2ccccc2)c2ccccc2)CC1`, the “PER2::LUC luminescence” value worked out at 1.03 (time after treatment 24 h) and 0.922 (time after treatment 30 h).

For `CC[C@@H]1C=CC=CC[C@H](C)[C@@H](O)[C@@H](C)C(=O)[C@H](C)[C@@H](O)[C@H](C)C(=O)[C@H](C)[C@@H](O)[C@H](C)C=CC(=O)O[C@H]2[C@@H](C)[C@@H](CC1)O[C@@]1(CC[C@@H](C)[C@@H](C[C@H](C)O)O1)[C@@H]2C`, the “PER2::LUC luminescence” value (time after treatment 24 h) was 1.18 and the “PER2::LUC luminescence” value (time after treatment 30 h) amounted to 1.09.

As to `CN(C)CCc1ccc(O)cc1`, the “PER2::LUC luminescence” value turned out to be 1.05 (time after treatment 24 h) and 1 (time after treatment 30 h).

Consider `CC(=O)[C@H]1CC[C@H]2[C@@H]3CC[C@H]4C[C@](C)(O)CC[C@]4(C)[C@H]3CC[C@]12C`, for which the “PER2::LUC luminescence” value runs as follows: (time after treatment 24 h) 1.01; (time after treatment 30 h) 0.851.

On to `O=C1C=CC(=O)c2ccccc21`, for which the “PER2::LUC luminescence” value by setting is: (time after treatment 24 h) 1.03; (time after treatment 30 h) 1.05.

Turning to `CN1[C@@H]2C[C@@H](OC(=O)[C@H](CO)c3ccccc3)C[C@H]1[C@@H]1O[C@@H]12`, the “PER2::LUC luminescence” value is, setting by setting: (time after treatment 24 h) 0.968 and 0.842; (time after treatment 30 h) 0.922 and 0.825.

Regarding `C[C@@H]1O[C@@H](O[C@H]2CC[C@]3(C=O)[C@H]4CC[C@]5(C)[C@@H](C6=CC(=O)OC6)CC[C@]5(O)[C@@H]4CC[C@]3(O)C2)[C@H](O)[C@H](O)[C@H]1O`, the “PER2::LUC luminescence” value is, setting by setting: (time after treatment 24 h) 1.03; (time after treatment 30 h) 1.03.

With `CC(C)(O)[C@H]1O[C@H]2CC[C@@]3(C)[C@@](O)(CC[C@H]4Cc5c([nH]c6ccccc56)[C@@]43C)C2=CC1=O`, the “PER2::LUC luminescence” value worked out at 0.859 (time after treatment 24 h) and 0.814 (time after treatment 30 h).

With `CC1(C)C2CC(=O)[C@]3(C)C(CC[C@@]4(C)[C@H](c5ccoc5)OC(=O)C5OC543)[C@@]2(C)[C@@H](O)C[C@H]1O` (some centres not stated), the “PER2::LUC luminescence” value (time after treatment 24 h) was 0.973 and the “PER2::LUC luminescence” value (time after treatment 30 h) was determined as 0.944.
